# Screen size: about 150,000 compounds; about 540 (0.36%) showed an effect of 50% or more. Some of the results follow.
# System: Plasmodium falciparum
# Assay: Primary screen in NF54 nanoGlo assay, in single point, at 2uM, 72h; a lower Z score goes with more inhibition
# Type: functional, Erythrocyte
# Details: timepoint 72 hour
SMILES,% Inhibition,Z score
O=C(Nc1ccccc1)c1ccc2c(c1)C(=O)N(CCC1=CCCCC1)C2=O,31%,-3.47
CCCN1C[C@H]2CN(C(=O)Cc3c(F)cccc3Cl)C[C@@]2(C(=O)O)C1,-9%,1.83
Cc1cccc(C(=O)Nc2ccc3oc(C4CC4)nc3c2)c1O,29%,-3.8
COc1ccc(CCN[C@H]2CCC(=O)N(CC3CC3)CC2)cc1,-5%,0.88
CCOC(=O)[C@@H](NC(=O)CCc1cn[nH]c1)C1CCCCCC1,-6%,0.77
O=C(N[C@@H]1CC[C@H]2CCOc3ccccc3C(=O)N3CCN(Cc4ccc(Cl)c(F)c4)C[C@H]3C(=O)NC[C@H]1O2)C1CCOCC1,-6%,0.71
Cc1nc2c([nH]1)CN(C(=O)c1ccc(-c3nc[nH]n3)cc1)CC2,1%,-0.15
N#C[C@H](c1c(F)cccc1Cl)N1CC[S+]([O-])CC1,-1%,0.13
CC(C)(O)Cn1nc(C2CC2)nc1-c1ccc2ccccc2c1,1%,-0.1
O=C(NCCc1cccs1)c1cccnc1,9%,-1.01
Cc1nc(C)c(C(=O)NCCc2noc(C(C)C)n2)o1,-5%,0.57
O=C(C1CN(C(c2ccccc2)c2ccccc2)C1)N1CCCC1,6%,-0.81
CN(C(=O)Cn1ccc2ccccc2c1=O)[C@@H]1CCC[C@H]1O,-14%,1.14
COc1ccc2c(c1)CCC[C@@]2(O)CNC(=O)c1ccoc1,-25%,3.2
Cc1nn(C)c(N)c1C(=O)N1CCC(c2nc3cccc(C)c3o2)CC1,-15%,2.81
Cc1nnc2n1CCN(Cc1ccc3c(c1)CCO3)[C@H]2C(=O)N(C)C,-4%,0.58
Cc1ccc(CC(C)NC(=O)CC2CCS(=O)(=O)C2)s1 (centres undefined),1%,-0.07
CCCc1nc(C)cc(N2CC[C@H](N(C)C)C2)n1,-2%,0.3
CN(C)C(=O)CN1CN(c2ccccc2)C2(CCN(C(=O)Nc3ccc(Cl)cc3Cl)CC2)C1=O,-13%,1.73
COc1ccc2[nH]c3c(c2c1)C[C@@H](NCc1cccnc1OC)CC3,-3%,0.39
N#Cc1ccc(F)cc1Cn1ncsc1=O,1%,-0.18

SMILES,% Inhibition,Z score
O=C(Nc1ccc(S(=O)(=O)N2CCCC2)cc1)[C@@H]1CC=CCC1,-8%,1.54
CC[C@H](O)Cn1nnc(-c2ccc3ncccc3c2)n1,-5%,0.77
Cn1cc(CCCN2CCC3CCC(C2)N3C(=O)OC(C)(C)C)cn1 (centres undefined),0%,-0.02
Cc1ccccc1S(=O)(=O)N1CCc2nc(-c3ccc(Cl)cc3)ncc2C1,-2%,0.37
COc1ccc(-c2csc(N3N=C(C)[C@H](/N=N/c4ccc(N(C)C(C)=O)cc4)C3=O)n2)cc1,-28%,3.26
O=C(C1CCCC1)N1CCOc2ccc(N3CCOCC3)cc2C1,7%,-1.38
CCN(CC)C(=O)CCCNc1ncccc1Cl,-3%,0.29
Cc1ccc(CNC(=O)CN2C(=O)CCc3cc(S(=O)(=O)N4CCCCC4)ccc32)cc1,-10%,1.84
Cc1ccc(-c2cc(C(N)=O)ccn2)c2ccccc12,-17%,1.67
O=S(=O)(c1ccccc1OC(F)(F)F)N1CC(n2nccn2)C1,15%,-1.71
CCN(CC)C(=O)Cn1cc(C(=O)NCc2ccc(N3CCOCC3)cc2)nn1,0%,0.03
Cc1ccc(S(=O)(=O)N2CCc3cc(F)cc(C)c3C2)cn1,0%,0.02
COc1ccc(C(=O)c2c(N(C)C)ccc3ccccc23)cc1,-6%,1.19
CN(CCN1CCCC[C@@H]1CS(N)(=O)=O)Cc1ccccc1,-5%,0.59
CCn1cnnc1C(C)NC(=O)CCN1C[C@@H](C)O[C@@H](C)C1 (some centres undefined),16%,-2.08
COc1c2ccoc2nc2c(OC)c(OC3OC(C)C(O)C(O)C3O)ccc12 (centres undefined),-5%,0.66
COc1cccc([C@H](CN2CCN(S(=O)(=O)c3ccc(F)c(Cl)c3)CC2)OCc2ccc(C)cc2)c1,-8%,1.2
CC(C)n1ncc2c(C(=O)N3CCc4ccccc43)cc(-c3ccc4c(c3)OCCO4)nc21,-15%,1.38
CN(Cc1cnn(C)c1)C(=O)c1cc(Cl)c(Cl)n1C,-2%,0.48
O=C1N[C@H]2CCC[C@H]2C(=O)N1CCc1ccccn1,-7%,1.04
CCC1(CC)CN(C(=O)[C@H](C)c2cccs2)CCS1(=O)=O,4%,-0.62
